These results are taken from article PMC7758049.

Results are given in words; binding and its absence hold for the method and conditions named. Some results given as binding are weak or reduced against the parent protein; the word gives no strength. Tags and fused reporters may be left off the sequences shown.

Assay [1] has as its target T1, BD-myc-Imp4-V170F (GAL4BD-c-myc-imp4-V170F) (S. cerevisiae) (UniProt P53941).
T1 sequence: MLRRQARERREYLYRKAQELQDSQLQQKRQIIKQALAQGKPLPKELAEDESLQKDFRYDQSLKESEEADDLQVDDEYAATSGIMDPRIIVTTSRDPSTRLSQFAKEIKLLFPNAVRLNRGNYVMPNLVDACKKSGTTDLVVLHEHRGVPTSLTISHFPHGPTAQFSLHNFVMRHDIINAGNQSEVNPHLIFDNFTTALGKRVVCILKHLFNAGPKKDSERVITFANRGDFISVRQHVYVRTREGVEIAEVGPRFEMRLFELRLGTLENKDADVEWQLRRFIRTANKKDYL
As to the kind of experiment: two-hybrid; Utp2-AD-HA with BD-myc-Imp4 (wild type or mutant); growth on SD-Leu-Trp-His- with 6 mM 3AT.

For assay [2], the target named is T2, BD-myc-Imp4-P252L (GAL4BD-c-myc-imp4-P252L) (S. cerevisiae) (UniProt P53941).
T2 sequence: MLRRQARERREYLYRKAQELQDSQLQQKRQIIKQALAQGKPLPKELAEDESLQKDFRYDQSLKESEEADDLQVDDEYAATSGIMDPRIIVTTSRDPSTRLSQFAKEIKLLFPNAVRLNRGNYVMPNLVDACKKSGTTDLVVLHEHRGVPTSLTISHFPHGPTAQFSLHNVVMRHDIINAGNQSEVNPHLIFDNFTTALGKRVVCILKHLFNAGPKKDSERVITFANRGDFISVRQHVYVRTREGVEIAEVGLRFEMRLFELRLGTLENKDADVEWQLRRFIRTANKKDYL
The description is as above.

Assay [3] has as its target T3, BD-myc-Imp4 (S. cerevisiae) (UniProt P53941).
T3 sequence: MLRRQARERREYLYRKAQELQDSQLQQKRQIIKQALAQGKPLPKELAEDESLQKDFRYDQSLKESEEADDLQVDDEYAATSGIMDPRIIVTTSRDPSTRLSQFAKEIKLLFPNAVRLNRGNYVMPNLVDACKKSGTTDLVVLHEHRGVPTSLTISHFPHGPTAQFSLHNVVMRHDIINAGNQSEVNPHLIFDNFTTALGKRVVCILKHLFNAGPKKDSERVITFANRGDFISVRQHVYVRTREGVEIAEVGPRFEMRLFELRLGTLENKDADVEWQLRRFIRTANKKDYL
The description is as above.

For assay [4], the target named is T3, BD-myc-Imp4 (S. cerevisiae). As to the kind of experiment: two-hybrid; Utp2-AD-HA (wild type or mutant) with BD-myc-Imp4; growth on SD-Leu-Trp-His- with 2 mM 3-Amino-1,2,4-triazole (3AT).

B1: Utp2-AD-HA (protein, UniProt Q99207 1-810)
chain: MAGSQLKNLKAALKARGLTGQTNVKSKNKKNSKRQAKEYDREEKKKAIAEIREEFNPFEIKAARNKRRDGLPSKTADRIAVGKPGISKQIGEEQRKRAFEARKMMKNKRGGVIDKRFGERDKLLTEEEKMLERFTRERQSQSKRNANLFNLEDDEDDGDMFGDGLTHLGQSLSLEDELANDEEDFLASKRFNEDDAELQQPQRKKTKAEVMKEVIAKSKFYKQERQKAQGIMEDQIDNLDDNFEDVMSELMMTQPKKNPMEPKTDLDKEYDIKVKELQLDKRAAPSDRTKTEEEKNAEAEEKKRELEQQRLDRMNGMIELEEGEERGVEDLDDGFWENEEDYEDDNDGIADSDDDIKFEDQGRDEGFSQILKKKNISISCPRTHDALLDQVKKLDLDDHPKIVKNIIKAYQPKLAEGNKEKLGKFTAVLLRHIIFLSNQNYLKNVQSFKRTQNALISILKSLSEKYNRELSEECRDYINEMQARYKKNHFDALSNGDLVFFSIIGILFSTSDQYHLVITPALILMSQFLEQIKFNSLKRIAFGAVLVRIVSQYQRISKRYIPEVVYFFQKILLTFIVEKENQEKPLDFENIRLDSYELGLPLDVDFTKKRSTIIPLHTLSTMDTEAHPVDQCVSVLLNVMESLDATISTVWKSLPAFNEIILPIQQLLSAYTSKYSDFEKPRNILNKVEKLTKFTEHIPLALQNHKPVSIPTHAPKYEENFNPDKKSYDPDRTRSEINKMKAQLKKERKFTMKEIRKDAKFEARQRIEEKNKESSDYHAKMAHIVNTINTEEGAEKNKYERERKLRGGKK
Regarding B1, the binding entry is reported as “no binding” in assay [1], “no binding” in assay [2], “binds” in assay [3] and “binds” in assay [4].
